Data reported in a compilation of properties of binary mixtures (doi:10.1016/j.molliq.2016.07.107).
Some of these densities may be calculated back from excess volumes.

Experiment: xn = mol fraction of the nth substance listed
Details: 298.15 K, 101 kPa

CCCC[NH3+].O=[N+]([O-])[O-] + CCO
Details | mass density [kg/m3]
x2 = 0.2091 | 1073.9
x2 = 0.3412 | 1048.9
x2 = 0.4482 | 1024.8
x2 = 0.5775 | 989.8
x2 = 0.6659 | 961.5
x2 = 0.7526 | 927.4
x2 = 0.7925 | 909.9
x2 = 0.8384 | 887.8
x2 = 0.8976 | 855.8

CC[NH3+].O=[N+]([O-])[O-] + CCO
Details | mass density [kg/m3]
x2 = 0.1991 | 1154.9
x2 = 0.3298 | 1115.2
x2 = 0.755 | 939
x2 = 0.7879 | 921.6
x2 = 0.839 | 892.9
x2 = 0.9059 | 851.7

CCCC[NH3+].O=[N+]([O-])[O-] + O
Details | mass density [kg/m3]
x2 = 0.2292 | 1103.7
x2 = 0.5973 | 1095.4
x2 = 0.6854 | 1090.7
x2 = 0.7644 | 1084.1
x2 = 0.8307 | 1075.5
x2 = 0.9028 | 1059.1

CC[NH3+].O=[N+]([O-])[O-] + O
Details | mass density [kg/m3]
x2 = 0.0594 | 1206.3
x2 = 0.12 | 1204.5
x2 = 0.2565 | 1199
x2 = 0.6606 | 1163
x2 = 0.7762 | 1138.1
x2 = 0.8213 | 1123.6
x2 = 0.9059 | 1083.7
